{
  "source": "PubChem BioAssay AID488969",
  "about": "(Vanderbilt High Throughput Screening Facility, 2010)",
  "note": "In all, about 110,000 compounds were measured (“z-score”: median about -0.1, highest 2% from about 2 on). The list shows a part of the results.",
  "data": [
    {"target": "Metabotropic glutamate receptor 8 (Rattus norvegicus) (UniProt P70579)", "sequence (P70579 whole entry, looked up)": "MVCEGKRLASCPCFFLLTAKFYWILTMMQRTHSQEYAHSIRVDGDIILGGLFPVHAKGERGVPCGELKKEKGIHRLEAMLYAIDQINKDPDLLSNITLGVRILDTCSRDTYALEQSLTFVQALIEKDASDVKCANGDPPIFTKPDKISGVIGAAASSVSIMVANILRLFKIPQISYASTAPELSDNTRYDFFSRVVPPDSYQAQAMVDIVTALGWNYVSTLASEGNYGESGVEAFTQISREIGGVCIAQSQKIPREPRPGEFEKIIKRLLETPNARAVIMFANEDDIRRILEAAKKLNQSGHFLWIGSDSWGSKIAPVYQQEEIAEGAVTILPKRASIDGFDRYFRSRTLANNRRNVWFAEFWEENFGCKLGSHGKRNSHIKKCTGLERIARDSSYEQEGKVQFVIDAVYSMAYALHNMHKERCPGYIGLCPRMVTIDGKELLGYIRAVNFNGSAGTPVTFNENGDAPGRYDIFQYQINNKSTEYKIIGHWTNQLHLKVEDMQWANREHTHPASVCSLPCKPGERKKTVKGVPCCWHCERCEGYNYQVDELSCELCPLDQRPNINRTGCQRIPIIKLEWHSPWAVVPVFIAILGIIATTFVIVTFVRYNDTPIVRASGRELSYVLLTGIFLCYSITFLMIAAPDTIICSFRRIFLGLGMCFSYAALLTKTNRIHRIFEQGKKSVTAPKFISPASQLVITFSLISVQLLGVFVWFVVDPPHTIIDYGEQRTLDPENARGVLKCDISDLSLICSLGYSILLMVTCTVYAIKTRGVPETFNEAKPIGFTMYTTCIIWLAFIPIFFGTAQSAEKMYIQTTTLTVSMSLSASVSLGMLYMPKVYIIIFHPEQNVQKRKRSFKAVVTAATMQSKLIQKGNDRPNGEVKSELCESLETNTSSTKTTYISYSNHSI", "test": "mGluR8 Gi/Go-coupled signaling modulation – cell-based, rat, thallium flux, HTS, primary screen (AID 488969)", "details": "HEK293 rat mGluR8, GIRK (G protein-gated inwardly rectifying potassium channel) thallium flux, FluoZin2; at 10 µM; stronger effect = higher value; submaximal glutamate (EC20) added with thallium", "values": [
      {"smiles": "Cc1ccc(NC(=O)CSc2nc(NS(=O)(=O)c3ccccc3)cc(=O)[nH]2)cc1", "z-score": -0.169},
      {"smiles": "COc1cc(NC(=O)C2CCN(S(=O)(=O)c3cnc[nH]3)CC2)cc(OC)c1OC", "z-score": -0.49},
      {"smiles": "O=C(/C=C/c1ccc(Cl)c([N+](=O)[O-])c1)NCc1cccnc1", "z-score": 0.179},
      {"smiles": "CCOc1cc(C)c(Cl)cc1S(=O)(=O)N(C)C", "z-score": 0.235},
      {"smiles": "COc1ccc(OC)c(S(=O)(=O)N2CCN(c3c(C)cccc3C)CC2)c1", "z-score": -0.517},
      {"smiles": "CCCCN(CC)C(=O)Cc1ccccc1OC", "z-score": -0.0261},
      {"smiles": "O=C1CCc2cc(S(=O)(=O)N3CCC(C(=O)NC4CCCC4)CC3)ccc2N1", "z-score": 0.211},
      {"smiles": "COc1cccc(OC)c1OCCN(C)C", "z-score": -0.123},
      {"smiles": "CCCC(c1nnnn1C(C)(C)CC)N1CCN(C2CCCC2)CC1", "note": "(stereo unspecified)", "z-score": -0.327},
      {"smiles": "CC(C(=O)NCc1cccnc1)N1C(=O)c2ccccc2C1=O", "note": "(stereo unspecified)", "z-score": -0.0295},
      {"smiles": "Cc1ccc2nc(/C(C#N)=C\\c3ccc(Oc4ccc(C(F)(F)F)cc4[N+](=O)[O-])cc3)[nH]c2c1", "z-score": -0.189},
      {"smiles": "CCOC(=O)C1CCCN(C(=O)c2cn(CC(C)C)c(=O)c3cc(OC)c(OC)cc23)C1", "note": "(stereo unspecified)", "z-score": -0.759},
      {"smiles": "CCCCNC(=O)CCNC(=O)c1ccc(C(C)(C)C)cc1", "z-score": -0.345},
      {"smiles": "CCN(CC)S(=O)(=O)c1ccc(N2CCOCC2)c(NC(=O)Cc2ccccc2)c1", "z-score": -0.339},
      {"smiles": "CSc1ccc(S(=O)(=O)Nc2ccc3c4c(cccc24)CC3)cc1", "z-score": -0.0865},
      {"smiles": "Cc1ccc2c(c1)NC(=O)C(CC(=O)NCCCN1CCCC1)O2", "note": "(stereo unspecified)", "z-score": 0.515},
      {"smiles": "COc1ccc(/C=C/c2nc3cc(-c4ccccc4)ccc3o2)cc1O", "z-score": -0.0979},
      {"smiles": "COc1ccc(NC(=O)CSc2nnc(C3CC3)n2N)cc1", "z-score": 0.406},
      {"smiles": "COc1ccc(-c2nc(N)ncc2Oc2ccccc2Br)c(O)c1", "z-score": -0.207},
      {"smiles": "CCn1c(C)cc(/C=C2/SC(=S)NC2=O)c1C", "z-score": 0.271},
      {"smiles": "COc1ccc(C2C3=C(N=C4SCC(=O)N42)c2ccccc2CC3)cc1OC", "note": "(stereo unspecified)", "z-score": -0.0972},
      {"smiles": "Cc1ccc(-c2ccc(CCC(=O)O)n2CC(=O)O)cc1", "z-score": -0.23},
      {"smiles": "Nc1ccc(C2(c3ccc(N)cc3)C(=O)Nc3ccccc32)cc1", "z-score": -0.763},
      {"smiles": "COc1ccc(-c2csc(N(CC3CCCO3)C(=O)c3ccc(C)cc3)n2)cc1", "note": "(stereo unspecified)", "z-score": 0.0835},
      {"smiles": "Cc1[nH]n(-c2ccccc2)c(=O)c1C(C[N+](=O)[O-])c1ccccc1Cl", "note": "(stereo unspecified)", "z-score": -0.62},
      {"smiles": "Cc1nn(C)c(-c2n[nH]c(=S)n2Cc2ccco2)c1Cl", "z-score": 0.099},
      {"smiles": "COCC(=O)Nc1nnc(COc2ccccc2)s1", "z-score": 1.53},
      {"smiles": "Cc1cc(C)n2nc(SCCC(=O)NCCc3ccccc3)nc2n1", "z-score": -0.398},
      {"smiles": "Cc1nc(C(=O)Nc2cccc(Cl)c2)nn1-c1cc(OC(C)C)c(Cl)cc1Cl", "z-score": -0.414},
      {"smiles": "COc1ccc(C2=NOC(C(=O)N3CCN(c4ccccc4OC)CC3)C2)cc1", "note": "(stereo unspecified)", "z-score": -0.609},
      {"smiles": "CC1(C)CC(=O)c2cnc(NC(=O)CSc3nc4ccccc4o3)nc2C1", "z-score": -0.17},
      {"smiles": "CC(NC(=O)Nc1ccccc1C(F)(F)F)C1CCCO1", "note": "(stereo unspecified)", "z-score": 0.263},
      {"smiles": "Cc1cc(=O)n2nc(N3CCCC(C(=O)N4CCc5ccccc54)C3)sc2n1", "note": "(stereo unspecified)", "z-score": 0.0947},
      {"smiles": "COc1ccccc1NC(=O)C(C/C=C(/C)Cl)C(C)=O", "note": "(stereo unspecified)", "z-score": 0.122},
      {"smiles": "CC(=O)Nc1ccc(NC(=O)CSc2ccc(C(F)(F)F)cc2[N+](=O)[O-])cc1", "z-score": -0.252},
      {"smiles": "O=C(Nc1ccc(Cl)c(C(F)(F)F)c1)N1CCCC(O)C1", "note": "(stereo unspecified)", "z-score": -0.895},
      {"smiles": "Cc1ccc(-c2csc3n[nH]c(=S)n23)cc1", "z-score": -0.454},
      {"smiles": "CCCn1c(SCC(=O)N2c3ccccc3Sc3ccccc32)nc2c1c(=O)n(C)c(=O)n2C", "z-score": 0.402},
      {"smiles": "O=C1c2ccccc2S(=O)(=O)N1CCOc1ccc(F)cc1", "z-score": 0.0834},
      {"smiles": "Cc1ccc(C)c(C(=O)COC(=O)CCCC(=O)Nc2cc(C(F)(F)F)ccc2Cl)c1", "z-score": -0.0981},
      {"smiles": "CN(C)c1ccc(/C=N/n2c(COc3ccccc3)n[nH]c2=S)cc1", "z-score": 0.208},
      {"smiles": "N#Cc1c(Cl)nc(N/N=C/c2ccccc2)c(Cl)c1Cl", "z-score": 0.00479},
      {"smiles": "Cc1cc(-c2ccccc2)nc(N(C)NC(=O)c2c(F)cccc2F)c1S(C)(=O)=O", "z-score": -0.207},
      {"smiles": "O=C(Cn1cnc2c(cnn2-c2ccc(F)cc2)c1=O)N1CCCc2ccccc21", "z-score": 0.383},
      {"smiles": "CCn1c(CC(=O)Nc2ccc(C)cc2)nnc1SCC(=O)N1CCN(c2ccccc2)CC1", "z-score": -0.245},
      {"smiles": "Nc1nc(N)nc(-c2ccccc2O)n1", "z-score": -0.0307},
      {"smiles": "Cc1ccnc(NC(=O)C2(c3cccs3)CCOCC2)c1", "z-score": -0.137},
      {"smiles": "Cc1ccc2nc(SCC(=O)Nc3cccc(S(=O)(=O)N(C)C)c3)[nH]c2c1", "z-score": -0.805},
      {"smiles": "O=C(Oc1csc(=S)n1C(=O)c1ccccc1)c1ccccc1", "z-score": 0.0692},
      {"smiles": "CNC(=O)c1nc[nH]c1C(=O)NC", "z-score": 0.214},
      {"smiles": "Cc1ccc(Nc2nc(-c3ccc(S(=O)(=O)N4CCOCC4)cc3)cs2)cc1", "z-score": -0.143},
      {"smiles": "COc1ccc(C2=Nn3c(nnc3-c3cccnc3)SC2)cc1", "z-score": -0.699},
      {"smiles": "N#Cc1cc(-c2ccccc2)nnc1Sc1ccc(F)cc1", "z-score": 0.425},
      {"smiles": "CN(C1CCCCC1)S(=O)(=O)c1ccc(NC(=O)C2CCCCC2C(=O)O)cc1", "note": "(stereo unspecified)", "z-score": -0.0592},
      {"smiles": "CCn1c(C)nc2cc(C(=O)NNC(=S)Nc3ccccc3Cl)ccc21", "z-score": 0.0157},
      {"smiles": "COc1ccccc1/C=C/C(=O)Nc1ccc2c(c1)CCC2", "z-score": -0.4}
    ]}
  ]
}
